Some of the results follow.

Experimental findings from the supplement of paper PMC11417369 are described below.

This assay has as its system PfHDP1 homeodomain (GST-tagged). Description: gcPBM binding intensity (ln(normalized median fluorescence intensity)); higher = stronger DNA binding. Put shortly: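 An Agilent 4 × 180k array carrying primer-extended double-stranded 36-bp intergenic genomic probes and negative controls received GST-tagged P. falciparum DNA-binding domains expressed in E. coli, about 25 μg on average, for 1 h. The binding buffer contained 1× PBS, 1% milk, 0.2 mg/ml BSA, 0.5% salmon testes DNA and 0.03% Triton X-100. Binding intensity is the top Masliner-normalised natural-log median intensity across replicate spots of either probe orientation, read after Alexa488 anti-GST antibody staining and a 488 nm scan.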
Take “ATTTTTTTTTTTTTTATTCCCCTTTCGAAAAAAACC [CACACA_negctrl_site1139]”: the “gcPBM binding intensity (ln)” value came to 6.58. For “CATATTGAATATTTAACACACATTTCGCTTAATTCA [CACACA_site2086]”, the “gcPBM binding intensity (ln)” value came to 6.46. With “GCAACAAAAAATCAGACATGCATTTTAAAATGAATA [TGCATGCA_site846]” the figure was 6.29. With “ACACATTATAAAACTGTCGCTCATAAAGAAGAATGA [CACACA_negctrl_site999]”, the “gcPBM binding intensity (ln)” value worked out at 6.67.

With “GAATGAATTGTTATTAGTACACATGTGAATTATAAA [XGTACX_site6790]”, the “gcPBM binding intensity (ln)” value came out at 6.45. In the case of “TATAAAAAAAAAATTTGTACATAATAATATATATAT [XGTACX_site2074]”, the “gcPBM binding intensity (ln)” value came to 8.01. With “TTATATATAAAATACTGTACATTTAATTGATGGTTT [XGTACX_site2073]” the figure was 6.3; with “AGAAAAAAAAAAAGTACACACATATAATATATATAT [CACACA_site2973]”, 8.2. Under “AGTTAATGAATAGGCACACATATATCTGTATAAATA [CACACA_site4448]” stands 6.49. Under “TCAAATAATAAGTATGCATGCTATATTTATATATAC [TGCATGCA_site920]” stands 6.37; under “AAACGTACATAATACACACACATGTATACCTATAAA [CACACA_site7051]”, 7.1. As for “TACATTTTACTTGTTACACACATATAAAATTAACCA [CACACA_site2922]”, the “gcPBM binding intensity (ln)” value is 6.59. As to “AAAAGGTATAGAAACACACACACGTGAATATAGTTT [CACACA_site1905]”, the “gcPBM binding intensity (ln)” value is 6.49. Under “ATATTTTATTTTAATACACACAAGTTATATAATCAC [CACACA_site780]” stands 6.63; under “CACACCCACCAACACACACACAAAAAAAAAAAGAAA [CACACA_site500]”, 6.72; under “AAAAAAAACGGACACACACACATAAATATATATAAA [CACACA_site4260]”, 6.9. Under “ACATATGTTTTATGTAGTACTTATTTATTATTATAT [XGTACX_site7528]” stands 6.45; under “TACAAATTTATATAAAGTACAAAAAATAATAAAAAT [XGTACX_site7355]”, 7.01. Under “AAAAAAAAAAAAAGTGCACACATAAAAATATGATCT [CACACA_site8090]” stands 8.92; under “ATGAATAAATAGGTCACACACAAATATATATAAATA [CACACA_site2416]”, 6.94; under “TTGTTCGATATATGCACACAGTTTTGTTATTTTTCC [CACACA_site4972]”, 9.91. “CACTACACTGTTAATAGTACATATATTTAAAAAAAA [XGTACX_site7371]”: the “gcPBM binding intensity (ln)” value came out at 6.73. Under “ACATCATATTAAGAAAGTACAAAAAGAGAACATATA [XGTACX_site1268]” stands 7.14.

“AAACAAAATTTATTTCAAAGTTAATAATTTTTATGT [CACACA_negctrl_site232]”: the “gcPBM binding intensity (ln)” value is 5.84.

As to “ATATTGTAGATATTGTGTACATATTTTACAACTTTT [XGTACX_site7621]”, the “gcPBM binding intensity (ln)” value amounted to 6.33.

Turning to “TATGTACACCCATATACACACCTCTATAATATATAT [CACACA_site4563]”, the “gcPBM binding intensity (ln)” value was 7.13.

For the sequence “ATAAAAAATAAAATAAATAAAAAATATTTACCCTTA [TGCATGCA_negctrl_site396]”, the “gcPBM binding intensity (ln)” value was 5.92.

Regarding “TCATTAAAAACTAAAAGTACTCAATATTATGAACAT [XGTACX_site7807]”, the “gcPBM binding intensity (ln)” value turned out to be 6.39.

Regarding “TAAAAAAATAAATATACACACATATATATATATATA [CACACA_site1089]”, the “gcPBM binding intensity (ln)” value stood at 9.28.

Regarding “TGTAGAAATGGGTGCACACACATATAAAATCTATAT [CACACA_site7224]”, the “gcPBM binding intensity (ln)” value is 10.4. Consider “GGATTTATTATATATACACACATACAGATATATATA [CACACA_site5222]”, for which the “gcPBM binding intensity (ln)” value worked out at 6.71.

Turning to “CATATATATTTGTTCACACACACACTAGAAAAAAAA [CACACA_site5380]”, the “gcPBM binding intensity (ln)” value worked out at 6.72.

For the sequence “AAATATAATATACAAAGTACTTTTTCATCTTATATA [XGTACX_site8771]”, the “gcPBM binding intensity (ln)” value came out at 6.26. With “AGACAATAATATAATCGTACAATAAATAAAATAAAA [XGTACX_site5231]” the figure was 6.77; with “AAAATAATCTTTTGATTGCACTGTTACATTTTTTCT [GTGCAC_site9563]”, 7.41; with “TAAAGAGAAATATGTACATGCGAAAATGCCTTAAAT [TGCATGCA_site1050]”, 7.04. For “TGAACAAAAAAAAATTGTACTTTTTTTTTAATATTT [XGTACX_site7172]”, the “gcPBM binding intensity (ln)” value worked out at 6.03.

Take “TTTCTTCGAAATAGAACACTTGTGCAAAATAAGCAA [XGTACX_negctrl_site361]”: the “gcPBM binding intensity (ln)” value was determined as 11.2. With “ATTTTTTTATAAAATTTTTATATAATTTATTATAAA [GTGCAC_negctrl_site96]” the figure was 6.3. For the sequence “AAAAAAAACAATCTCATACACACTAGGGATTAATTA [CACACA_site1776]”, the “gcPBM binding intensity (ln)” value was determined as 6.17. For the sequence “ATATATATATATATATGTACATATTTTATAACTGTA [XGTACX_site5395]”, the “gcPBM binding intensity (ln)” value was found to be 9.22. For “ATTTATACATATAAACGTACATACATATATAATATT [XGTACX_site2969]”, the “gcPBM binding intensity (ln)” value is 6.52. Take “AACATAAAACGTAATATATTACAAATATAAACAATC [CACACA_negctrl_site1675]”: the “gcPBM binding intensity (ln)” value came to 6.99.

“TTACCATTTGAAAATTCACACACTTTATTTTGTTAT [CACACA_site3799]”: the “gcPBM binding intensity (ln)” value is 6.77. Under TTTGGAATATTAATTGTGCACTTAAAAAGTTAATTA stands 9.76; under “CTTATGTGCATACCTACACACTTACATATATATATA [CACACA_site8973]”, 9.47. Under “TTAAATGTTGGTTGTAGTACTCCATATGTTGTTTTA [XGTACX_site5312]” stands 6.71. With “TGATACTGCAAAAAATATAAAAAAATAATAAAATAA [CACACA_negctrl_site791]” the figure was 6.34. With “TATATATATATAAGATGTACCCTTTGAAATAATAAT [XGTACX_site7215]”, the “gcPBM binding intensity (ln)” value amounted to 8.66. Under “TGGATAAAATAAAAATGTACTTAACATTTATATTTT [XGTACX_site712]” stands 6.28; under “AACAAAAGTAATTAAAAACAATACAAACATATGTTT [XGTACX_negctrl_site220]”, 6.24; under “ATATATAGGTTCCCTTTTCTTTTTTTTTTTTTTTTT [CACACA_negctrl_site1159]”, 6.25. With “ATCATTCAAAAATGCTGTACTAGGGGAAAACGTGTT [XGTACX_site7168]” the figure was 6.35. With “ATGTATGAAAAAATGTGTACATAATTTTTTTTTTTT [XGTACX_site5444]” the figure was 6.34; with “AAATAATATAAACATACACACACACCGATATATATA [CACACA_site8945]”, 7.07; with “TTTCTAATTTATATCACACACATATAAATATAGTAA [CACACA_site6210]”, 6.5.

As to “GGTGATATAATATATACATGCACATATATATTATTA [TGCATGCA_site970]”, the “gcPBM binding intensity (ln)” value stood at 9.05. With “TTACAAAAAAATAATTGTACATACAATTTCTGTTAT [XGTACX_site877]” the figure was 6.24; with “TTTATATGTATGAAGTGTACACATATATTGTATTTT [XGTACX_site5731]”, 6.73; with “TATGGAAATATATATTGTACGTATGACCTTTAAAAA [XGTACX_site3935]”, 6.45. Under “ATTAGTTTACACATATGTACATATATTACAACAAAA [XGTACX_site275]” stands 7.06. Take “TAAGATAAAAAAAATGCATGTTCTTATAATATTGTC [TGCATGCA_site939]”: the “gcPBM binding intensity (ln)” value was found to be 6.46. Under “GTAAGCATAAATATATGTACATACATATACAGATAT [XGTACX_site3361]” stands 6.46; under “ATATATATATATATATGTACATAATATATGTCCTAT [XGTACX_site5087]”, 9.26. With “ATTATATCATCTAAAACATGCACACATATGTACTCT [TGCATGCA_site949]” the figure was 8.2; with “GTTGAGAAAATATGTGCATGTCAGGTTAAATTTTTA [TGCATGCA_site744]”, 7.62. For “AATAAAAATAATGAATGTACATATATATATACAATA [XGTACX_site3342]”, the “gcPBM binding intensity (ln)” value worked out at 6.09. As for “ATATATAACGTGCACACACACATTTACGTATGAATA [CACACA_site6948]”, the “gcPBM binding intensity (ln)” value came out at 10.2. Turning to “TATGACATATCCTGTAGTACAACGTATATATAAGAT [XGTACX_site1327]”, the “gcPBM binding intensity (ln)” value amounted to 6.53. On to “ATATATAATTTTTGCTGTACACAAAATATTAATTTA [XGTACX_site2057]”, for which the “gcPBM binding intensity (ln)” value was determined as 7.22. “TTTTATTAAAACCACGCATGCAGAGGAAACGGTGAG [TGCATGCA_site1029]”: the “gcPBM binding intensity (ln)” value was found to be 7.24. For the sequence “TTCTGTATAATATAAAAACAAAAATTAAATTAAAAC [CACACA_negctrl_site81]”, the “gcPBM binding intensity (ln)” value stood at 6.43. On to “CATAAAATATAAAACACACACACATATATATATATA [CACACA_site223]”, for which the “gcPBM binding intensity (ln)” value is 9.32. For the sequence “TATTATATAAATATACGTACATATACTAACCTTTTA [XGTACX_site6317]”, the “gcPBM binding intensity (ln)” value was determined as 6.48.

As for “AAATTTTTTATTCTAATTAATATTTACACAATATAT [TGCATGCA_negctrl_site376]”, the “gcPBM binding intensity (ln)” value is 6.42.

As for “TTCCATGTAGGACATGCATGCAGTTTTTAAAATATT [TGCATGCA_site481]”, the “gcPBM binding intensity (ln)” value was determined as 6.95. Turning to “TTTTTTTCAATATTTGCACACGATTATAATATTTAA [CACACA_site2237]”, the “gcPBM binding intensity (ln)” value came out at 10.3.

Turning to “AATATTCGTAATTGATGTACTTGTAATTCATACATT [XGTACX_site8314]”, the “gcPBM binding intensity (ln)” value worked out at 6.32. Under “TTTATAATAAAATTTTTACACACTTTAAAAAAAAAA [CACACA_site8070]” stands 6.27.

Take “TATAATAAAAATAATACACACATATATAGCAATCGT [CACACA_site3241]”: the “gcPBM binding intensity (ln)” value is 7.17.

In the case of “AATAAATATCTGTACACACACAAATAAATACATATC [CACACA_site5108]”, the “gcPBM binding intensity (ln)” value stood at 6.63. Under “CAGAATAATTTTATCGGTACACACTGTATGCATAAT [XGTACX_site736]” stands 6.88. Under “TTTATGTATTTTTATGCACACATGCGTGGCTTATAT [CACACA_site4374]” stands 10.4. With “TACGGACATACTAACGGACACACGTAAGAAAAAAAA [CACACA_site602]” the figure was 6.44; with “TCTTTGTACTTTCACATGTACACCCAAATGGAAATT [CACACA_negctrl_site1442]”, 6.9; with “AAATAAATCTTATGCACACAAATAATTAATGAAACA [CACACA_site5011]”, 10.6.

With “ATATTTATGGAATATACACACATGTATAATTACATA [CACACA_site7045]”, the “gcPBM binding intensity (ln)” value worked out at 6.35.

For the sequence “AGGACTAATATTTGAACACACATATAATAAATACAT [CACACA_site6068]”, the “gcPBM binding intensity (ln)” value was determined as 6.55.
